# In PubChem BioAssay AID1508623 (National Center for Advancing Translational Sciences (NCATS), 2021):
# Screen size: about 48,000 compounds; about 450 (0.94%) were called active. Not shown: some 19% with an inconclusive outcome. Calls come from the whole dose curve; as a rule, active = well fitted inhibition curve with a large enough effect; inconclusive = small, poorly fitted or top-dose-only effect; inactive = no such curve, though single readings can be large or run the other way. The list shows a part of the results.
# Test: Primary qHTS for Identification of Small Molecule Inhibitors of Huntingtin Promoter Activity; note: nearly all actives have a fitted effect of over 50% in size
# Details: HEK293 HTT promoter firefly luciferase reporter (activity 0% = vehicle and -100% = no light), 24 h; series mostly up to 57.5 µM; activity change, negative = inhibition: at the top concentration
# Method in brief: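 HEK293 Fluc reporter, 2,500 cells/well, 24 h pre-culture; cpds up to 57.5 uM final, 24 h 37 degrees C; Dual-Glo, 10 min RT; normalized vehicle = 0%, zero RLU = -100%.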
row,Compound,"activity change, negative = inhibition"
1,Cc1ccccc1NC(=O)Nc1nnc(N(C)Cc2ccccc2)s1,inactive: -14.4%
2,Cc1c(Cl)cccc1N1CC(c2nc3ccccc3n2Cc2ccccc2F)CC1=O (stereo unspecified),inactive: 5.77%
3,Oc1ccccc1-c1nc(/C=C/c2ccc(F)cc2)no1,inactive: 33.3%
4,Cc1cccc(NC(=O)Cn2c(=O)n(Cc3ccc4c(c3)OCO4)c(=O)c3ccccc32)c1,inactive: -17%
5,Cc1[nH]c2ccccc2c1CCNCc1ccc(C=CC(=O)NO)cc1,inactive: 266%
6,Cc1cc(=O)[nH]c(SCC(=O)N2CCN(c3ccccc3)CC2)n1,inactive: -12.1%
7,COc1ccc(-c2nc3ccc(C(=O)NCc4ccc(C)cc4)cc3nc2-c2ccc(OC)cc2)cc1,inactive: -3.48%
8,COc1ccc(Cl)cc1-n1c(CCC(=O)O)ccc1-c1ccc(C)cc1,inactive: 55.1%
9,COc1ccc(NC(=O)c2oc3ccccc3c2NC(=O)Cc2ccc(F)cc2)c(OC)c1,inactive: -16.3%
10,CCC(=O)N1CCc2cc(CNS(=O)(=O)c3cc(Cl)ccc3OC)ccc21,inactive: -2.01%
11,COc1ccc(Br)cc1CNC(=O)CCSCc1ccc(Cl)cc1,inactive: -14.2%
12,Cc1nn(CC(=O)N2CCN(c3ccccc3)CC2)c(=O)c2cc3sccc3n12,inactive: 6.83%
13,CCN1CCN(c2cc(C)c3cc(NC(=O)c4cc(OC)cc(OC)c4)ccc3n2)CC1,inactive: 50.3%
14,Cc1c(C(=O)Nc2cccc(Cl)c2)oc2ccc(S(=O)(=O)N3CCOCC3)cc12,inactive: -4.7%
15,CCC(C)NC(=O)Cn1cnc2sc(C)c(S(=O)(=O)N3CCN(c4ccccc4OC)CC3)c2c1=O (stereo unspecified),inactive: -6.29%
16,COc1cccc(NC(=O)N2CCC(CN3CCOCC3)CC2)c1,inactive: -4.64%
17,CCc1ccccc1NC(=O)Cn1c(=O)ccc2cc(S(=O)(=O)N3CCC(C)CC3)ccc21,inactive: -28.8%
18,Cc1cccc(N2CCN(S(=O)(=O)c3c(C)nc4scc(C)n4c3=O)CC2C)c1 (stereo unspecified),inactive: -19.8%
19,Cc1ccc(CCNC(=O)CN2N=C(c3ccc(C)cc3)CCC2=O)cc1,inactive: -17.5%
20,CC1CCN(C(=O)c2ccc(NC(=O)c3nsc4ccccc34)cc2)CC1,inactive: -13.6%
21,CCOC(=O)c1sc(NC(=O)c2nc3nc(C)cc(C(F)F)n3n2)c(C(=O)OC)c1C,inactive: -0.979%

row,Compound,"activity change, negative = inhibition"
1,CCOc1cccc(C2c3c(oc4cc(C)c(C)cc4c3=O)C(=O)N2c2nc(C)c(C)s2)c1 (stereo unspecified),inactive: -6.52%
2,Cn1nc(C(=O)Nc2ccccc2C#N)c2c1-c1ccccc1SC2,inactive: -10.2%
3,CCOc1ccc(Nc2oc(/C=C/c3cc(OC)c(OC)c(OC)c3)nc2C#N)cc1,inactive: -4.16%
4,COc1ccc(NC(=O)CN(C)S(=O)(=O)c2cnc[nH]2)cc1,inactive: -5.74%
5,CCOc1ccc(NC(=O)CSc2nc3ccccc3c(=O)n2CCC(=O)NC2CCCCC2)cc1,inactive: -14.3%
6,O=C(COC(=O)c1cc(-c2cccs2)nc2ccccc12)c1ccc(Cl)cc1,inactive: -8.99%
7,COc1cc(C(=O)NCCSc2c(C)[nH]c3ccccc23)cc(OC)c1OC,inactive: -9.54%
8,O=C(NC1CC(=O)N(c2ccc(Cl)cc2)C1)C1CCCCC1 (stereo unspecified),inactive: -3.03%
9,COc1ccc(-c2noc(C3CC(=O)N(c4ccc5c(c4)OCCO5)C3)n2)c(OC)c1 (stereo unspecified),inactive: 0%
10,O=C(O)CSc1nc2ccccc2nc1N1CCCCC1,inactive: -19%
11,COC(=O)c1c(NC(=O)/C(C#N)=C/c2ccc(OC)cc2)sc2c1C(C(=O)OC)CC2 (stereo unspecified),inactive: 1.96%
12,CCc1ccccc1NC(=O)[C@H](Cc1ccccc1)N1Cc2ccccc2C1=O,inactive: -2.67%
13,CCOc1ccc(NC(=O)c2oc3ccccc3c2NC(=O)C(C)Oc2ccccc2)cc1 (stereo unspecified),inactive: -26.3%
14,Cc1cccc(C)c1NC(=O)CSc1nccn1C,inactive: -16.5%
15,Cc1ccc(C)c(CN2C(=O)c3ccccc3S(=O)(=O)c3ccc(C(=O)N4CCN(Cc5ccccc5)CC4)cc32)c1,inactive: 7.63%
16,CC(=O)c1cc2c(cc1N/C(=N/S(=O)(=O)c1ccc(C)cc1)c1ccc(Cl)cc1)OCO2,inactive: -9.17%
17,O=C(CCn1c(=O)c2cccn2c2cccnc21)NCc1cccc(Br)c1,inactive: 2.5%
18,Cc1ccc2c(=O)cc(C(=O)Nc3ccc(S(=O)(=O)N4CCCC(C)C4)cc3)oc2c1C (stereo unspecified),inactive: 11.4%
19,COc1ccc(-c2cn3c(n2)sc2cc(C(=O)NCc4ccccc4)ccc23)cc1,inactive: -18.4%
20,COc1ccc(OC)c(C2CC(=O)Nc3ccc4ccccc4c32)c1 (stereo unspecified),inactive: 3.91%
21,CCN(C(=O)CCS(=O)(=O)c1cc(Br)cc2c1N(C(=O)C1CC1)CC2)c1cccc(C)c1,inactive: -5.87%

row,Compound,"activity change, negative = inhibition"
1,COc1ccccc1C1=Nn2c(nc3sc(C(=O)Nc4ccccc4Cl)c(C)c3c2=O)SC1,inactive: -23%
2,Cc1ccc(C)c(C(=O)N2CCC(c3nc4c(nnn4Cc4ccccc4)c(=O)[nH]3)CC2)c1,inactive: -28.2%
3,CCOCCCn1c(SCC(=O)Nc2ccccc2OC)nc2c(oc3ccccc32)c1=O,inactive: -23.8%
4,CC(NC(=O)c1c(O)nc2ccccn2c1=O)c1ccccc1 (stereo unspecified),inactive: -13.7%
5,S=c1[nH]c2ccccc2s1,inactive: 5.47% [at 116 µM]
6,CCOc1ccccc1N1CC(c2nc3ccccc3n2CCCCOc2ccccc2)CC1=O (stereo unspecified),inactive: -4.26%
7,COc1ccc(CC(=O)NCc2ccc3c(c2)CCN3C(C)=O)cc1OC,inactive: -40.2%
8,CCN(CC)S(=O)(=O)c1ccc2c(c1)c(=O)c(C(=O)NCc1ccc(Cl)cc1)cn2C,inactive: -1.86%
9,CCOC(=O)C1CCN(C(=O)c2ccc3c(c2)sc2nc(-c4ccccc4)cn23)CC1,inactive: -18.3%
10,COc1cccc(CNC(=O)C2Cc3cc(S(=O)(=O)N4CCCCCC4)ccc3N2C(C)=O)c1 (stereo unspecified),inactive: 1.54%
11,Nc1c(C(=O)Nc2ccc(Cl)c(C(F)(F)F)c2)sc2nc(-c3ccncc3)ccc12,inactive: -24.1%
12,COc1ccc(C(=O)COC(=O)c2cc(-c3ccccc3)nc3c(C)cccc23)cc1,inactive: -3.07% [at 11.5 µM]
13,O=C1CCc2cc(S(=O)(=O)NCc3ccc(F)cc3)cc3c2N1CC3,inactive: -18.9%
14,CCC(=O)N1CCc2cc(Br)cc(S(=O)(=O)N3CCCC(C(=O)NCc4cccc(OC)c4)C3)c21 (stereo unspecified),inactive: -7.62%
15,Cc1nc2c(-c3ccccc3)c(C)nn2c(C)c1CCC(=O)N1CCN(c2ccccc2)CC1,inactive: -7.65%
16,CC(=O)N1CCCc2ccc(NS(=O)(=O)c3ccc(C)c(C)c3)cc21,inactive: 3.67%
17,Cn1nc(C(=O)N2CCN(c3cccc(Cl)c3)CC2)c2c1-c1ccccc1S(=O)(=O)C2,inactive: -17.8%
18,CCc1cc2c(cc3c(=O)n(CC(=O)N4CCC(C)CC4)nc(CC)n32)s1,inactive: -9.64%
19,NCCCNCCSP(=O)(O)O,inactive: 3.76% [at 11.5 µM]
